Results: the RNAGym collection of RNA variant scans (doi:10.7554/elife.90254)
Read counts are not given, so values of variants with three or more changes are uncertain.

B1: OR4K15 (parent)
chain: GUUAACGGUCAUAGGCCAUGGAAACUAGGAGCACCAUUUCGCUGCCAGUGAAGAAAUGAACAAAGAAAAUCUGGGCCAGGCAGGCAUCAAAAGAAAUAGUCUUGCGCUCAACCAGAAAGUCUGUAAUCAUUUUAAGGGUA

Variants of: B1
Assay: self-cleavage, relative activity (ratio to wild type); higher = more cleavage; in vitro, sequencing; the parent is a self-cleaving ribozyme

Variant | self-cleavage
GUUAACGGUCAUAGGCCAUGGAAACUAGGAGCACUAUUUCGCUGCCAGUGUAGAAAUGAACAAAGAAAAUCUGGGCCAGGCAGGCAUCAAAAGAAAUAGUCUUGCGCUCAACCAGAGAGUCUGUAAUCAUUUUAAGGGUA [C35U A51U A117G] | 1.18
GUUAACGGUCAUAGGCCAUGGAAACUAGGAGCACUAUUUCGCUGCCAGUGAAGAAGUGAACAAAGAAAAUCUGGGCCAGGCAGGCAUCAAAAGAAAUAGUCUUGCGCUCAACCAGAAAGUCUGUAAUCAUUUUAAGUGUA [C35U A56G G137U] | 1.09
GUUAACGGUCAUAGGCCAUGGAAACUAGGAGCACGAUUUCACUGCCAGUGAAGAGAUGGACAAAGAAAAUCUGGGCCAGGCAGGCAUCAAAAGAAAUAGUCUUGCGCUCAACCAGAAAGUCUGUAAUCAUUUUAAGGGUA [C35G G41A A55G A59G] | 1.1
GUUAACGGUCAUAGGCCAUGGAAACUAGGAGCAUCAUUUCGCUGCCAGUGAAGGAAUGAACAAAGAAAAUCUGGGCCAGGCAGGCAUCAAAAGAAAUAGUCUUGCGCUCAACCAGAGAGUCUGUAAUCAUUUUAAGGGUG [C34U A54G A117G A140G] | 2.81
GUUAACGGUCAUAGGCCAUGGAAACUAGGAGCAUCAUUUCGCUGCCAGAGAAGAAAUGAACAAAGAAAAUCUGGGCCUGGCAGGCUUCAAAAGAAACAGUCUUGCGCUCAACCAGAAAGUCUGUAAUUAUUUUAAGGGUA [C34U U49A A78U A86U U97C C128U] | 0.2
GUUAACGGUCAUAGGCCAUGGAAACUAGGAGCAUCAUUUCGCUGCCAGUGAGGAAAUGAACAAAGAAAAUCUGGGCCAGGCAGGCAUCAAAAGGAAUAGUCUUGCGCUCAACCAGAAGGUCUGUAAUCAUUUUAAGGGUA [C34U A52G A94G A118G] | 0.25
GUUAACGGUCAUAGGCCAUGGAAACUAGGAGCACUAUUUCGCUGCCAGUGGAGAAAUGAACAAAGAAAAUCUGGGCCAGGCAGGCAUCAAAAGAAAUAGUCUUGCGCUCAACCAGAAAGCCUGUAAUCAUUUUAGGGGUA [C35U A51G U120C A135G] | 0.54
GUUAACGGUCAUAGGCCAUGGAAACUAGGAGCACUAUUUCGCUGCCGGUGAAGAAAUGAACAAAGAAAAUCUGGGCCAGGCAGGCAUCAAAAGAAAUAGUCUUGCGCUCAACCAGAAUGUCUGUAAUCAUUUUAAGGGUA [C35U A47G A118U] | 0.2
GUUAACGGUCAUAGGCCAUGGAAACUAGGAGCAUCACUUCGCUGCCAGUGAAGAAAUGAACAAAGAAAAUCUGGGCCAGGCAGGCAUCAAAAGAAAUAGUCUUGCGCUCAACCAGAAAGUCUGUAAUCAUCUUAAGGGUA [C34U U37C U131C] | 0.02
GUUAACGGUCAUAGGCCAUGGAAACUAGGAGCACGAUUUCGCUGCCAGUGAAGAAAUGAGCAAGGAAAGUCUGGGCCAGGCAGGCAUCAAAAGAAAUAGUCUUGCGCUCAACCAGAAAGUCUGUAAUCAUUUUAAGGGUA [C35G A60G A64G A69G] | 0.92
GUUAACGGUCAUAGGCCAUGGAAACUAGGAGCAGCAUUUCGCUGCCAGUGUAGAAAUGAACAAAGAAAAUCUGGGCCAGGCAGGCAUCAUAAGAAAUAGUCUUGCGCUCAACCAGAAAGUCUGUAAUCGUUUUAAGGGUA [C34G A51U A90U A129G] | 1.36
GUUAACGGUCAUAGGCCAUGGAAACUAGGAGCACUAUUUCGCUGCCAGUGAAGAAAUGAACAAAGAAAAUCUGGGCCAGGCAGGCAUCACAAGAAAUAGUCUUGCGCUCAACCAGAAAGUCUGAAAUCACUUUAAGGGUA [C35U A90C U124A U130C] | 0.2
GUUAACGGUCAUAGGCCAUGGAAACUAGGAGCAGCAUUUCGCUGCCAGUGAAGGAAUGAACCAAGAAAAUCUGGGCCAGGCGGGCAUCAAAGGAAAUAGUCUUGCGCUCUACCAGAAAGUCUGUAAUCAUUUUAAGGGUA [C34G A54G A62C A82G A92G A110U] | 0.31
GUUAACGGUCAUAGGCCAUGGAAACUAGGAGCUCCAUUUCGCUGCCAGUGAAGAAAUGAACAAAGAAAAACUGGGCCAGGCAGGCAUCAGAAGAAAUAGUCUUGCGCUCAACCAGAAAGUCUGUAAUCAUUUUAAGGGUA [A33U U70A A90G] | 0.99
GUUAACGGUCAUAGGCCAUGGAAACUAGGAGCAACAUUUCGCUGCCAGUGAAGAAAUGAACAAAGAAAACCUGGGCCAGGCUGGCAUCAAAAGAAGUAGUCUUGCGCCCAACCAGAAAGUCUGUAAUCAUUUUAAGGGUA [C34A U70C A82U A96G U108C] | 0.01
GUUAACGGUCAUAGGCCAUGGAAACUAGGAGCACUAUUUCGCUGCCAGUGAAGAAAUGUACAAAGAAAAUCUGGGCCAGGCAGGCAUCAAAAGAAAUAGUCUUGCGCACAACCAGAAAGUCUGUAAUCAUUUUAAGGGUA [C35U A59U U108A] | 0.02
GUUAACGGUCAUAGGCCAUGGAAACUAGGAGCACUAUUUCGCUGCCAGUGAAGAAAUGAACAAGGAAAAUCUGGGCCAGGCAGGCAACAAAAGAAAUAGUCUUGCGCUCAACCAGAAAGUCUGUAAUCAUUUUAAGGGUA [C35U A64G U87A] | 0.7
GUUAACGGUCAUAGGCCAUGGAAACUAGGAGCACUACUUCGCUGCCAGUGAAGAAAUGAACAAAGAAAAUCUGGGCCAGGCAGGCAUCAGAAGAAAUAGUCUUGCGCUCAACCAGAAAGUCUGUAAUCAUUUUAAGGGUA [C35U U37C A90G] | 1.18
GUUAACGGUCAUAGGCCAUGGAAACUAGGAGCAACAUUUCGCUGCCAGUGAAGAAAUGAACAAAGAAAUUCUGGGCCAGGCAGGCAUCAAAAGAAAUAGUCUUGCGCUCAACCAGAAUGUCUGUAAUCAUUUUAAGGGUA [C34A A69U A118U] | 1.28
GUUAACGGUCAUAGGCCAUGGAAACUAGGAGCACUAUUUCGCUGCCAGUGAAUAAAUGAACAAAGAAAAUCUGGGCCAGGCAGGCAUCAAAAGAAAUAGUCUUGCGCUCAACCAGAAAGUCUGUAAUCAUCUUAAGGGUA [C35U G53U U131C] | 0.14
GUUAACGGUCAUAGGCCAUGGAAACUAGGAGCACUAUUUCGCUGCCAGUGAUGAAAUGAACAAAGAAAAUCUGGGCCAGGCAGGCAUCAAAAGAAGUAGUCUUGCGCUCAACCAGAACGUCUGUAAUCAUUUUAAGGGUA [C35U A52U A96G A118C] | 0.73

Variant | self-cleavage
GUUAACGGUCAUAGGCCAUGGAAACUAGGAGCACUAUUUCGCUGCCAGUGAAGAAAUGAACAAAGAAAGUCUGGGCCAGGCAGGCAUCAAAAGAAAUAGCCUUGCGCUCAGCCAGAAAGUCUGUAAUCAUUUUAGGGGUA [C35U A69G U100C A111G A135G] | 0
GUUAACGGUCAUAGGCCAUGGAAACUAGGAGCACAAUUUCGCUGCCAGUGAAGAGAUGAACAAAGAAAAUCUGGGCCAGGCAGGCUUCAAAAGAAAUAGUCUUGCGCUCAACCAGAAAGUCUGUAAUCACUUUAAGGGUA [C35A A55G A86U U130C] | 1.31
GUUAACGGUCAUAGGCCAUGGAAACUAGGAGCAUCAUUUCGCUGCCAGCGAAGAAAUGAACAAAGAAAAUCUGGGCCAGGCAGGCAUCAAAAGAAAUAGUCUUGCGCUCAGCCAGAAAGUCUGUAAUCAUUUUAAGGGUA [C34U U49C A111G] | 0.01
GUUAACGGUCAUAGGCCAUGGAAACUAGGAGCACAAUUUCGCUGCCAGUGAAGAAAUGAACAAGGAAAGUCUGGGCCAGGCAGGCACCAAAAGAAAUAGUCUUGCGCUCAACCAGAAAGUCUGUAAUCAUUUUAAGGGUA [C35A A64G A69G U87C] | 1.44
GUUAACGGUCAUAGGCCAUGGAAACUAGGAGCAGCAUUUCGCUGCCAGUGAAGAAAUGAACAAAGAAAAUCUGGGCCAGGCAGGCAUCAAAAGAAAUAGUCUUGCGCACAACCAGAGAGUCUGUAAACAUUUUAAGGGUG [C34G U108A A117G U127A A140G] | 0
GUUAACGGUCAUAGGCCAUGGAAACUAGGAGCACUAUUUCGCUGCCAGUGGAGAAAUGAACAAAGAAAAUCUGGGCCAGGCAGGCAUCAAAAGAAAUAGUCUCGCGCUCAACCAGAAAGUCUGUAAUCAUUUUAAGGGUA [C35U A51G U103C] | 0.27
GUUAACGGUCAUAGGCCAUGGAAACUAGGAGCACAAUUUCGCUGUCAGUGGAGAAAUGAACAAAGAAAAUCUGGGCCAGGCAGGCAUCAAAAGAAAUAGUCUUGCGCUCAACCAGAAAGUCUGUAAUCAUUUUAAGGGUA [C35A C45U A51G] | 0.93
GUUAACGGUCAUAGGCCAUGGAAACUAGGAGCUCCAUUUCGCUGCCAGUGAAGAAAUGAACAAAGAAAAUCUGGGCCAGGCAGGCACCAAAAGAAAUAGUCUUGCGCUCAACCAGAAAGUCUGUAAUCAUUUUAUGGGUA [A33U U87C A135U] | 2.63
GUUAACGGUCAUAGGCCAUGGAAACUAGGAGCACAAUUUCGCUGCCAGUGAAGAAAUGAACAAGGAAAAUCUGGGCCAGGCAGGCAUCGAAAGAAAUAGUCUUGCGCUCAACCAGAAAGUCUGUAAUCAUUUCAAGGGUA [C35A A64G A89G U133C] | 0.4
GUUAACGGUCAUAGGCCAUGGAAACUAGGAGCAUCAUUUCGCUGCCAGUGAAGAAAUGAACAAAGGAAAUCUGGGCCAGGCAGGCAUCAAAAGAAAUAGUCUUGCGCUCAACCAGAAGGUCUGUAAUCAUUUUAAGGGUA [C34U A66G A118G] | 0.95
GUUAACGGUCAUAGGCCAUGGAAACUAGGAGCACUAUUUCGCUGCCAGUGAAGGAAUGAACAAAGAAAGUCUGGGCCAGGCGGGCAUCAAAAGGAAUAGUCUUGCGCUCAACCAGAAAGUCUGUAAUCUUCUUAAGGGUA [C35U A54G A69G A82G A94G A129U U131C] | 0.34
GUUAACGGUCAUAGGCCAUGGAAACUAGGAGCACAAUUUCGCUGCCAGUGAAGAAAUGAACAAAGAAAAUCUGGGCCAGGCAGGCAUCAGAAGAAAUAGUCUUGCGCUCAACCAGAAAGUCUGUAAUCACUUUAAGGGUA [C35A A90G U130C] | 0.49
GUUAACGGUCAUAGGCCAUGGAAACUAGGAGCACAAUUUCGCCGCCUGUGAGGAAAUGAACAAAGAAAAUCUGGGCCAGGCAGGCAUCAAAAGAAAUAGUCUUGCGCUCAACCAGAAAGUCUGUAAUCAUUUUAAGGGUA [C35A U43C A47U A52G] | 0.54
GUUAACGGUCAUAGGCCAUGGAAACUAGGAGCACAAUUUCGCUGCCAGUGAAGAAAUGAACAAAGAAAAUCUGGGCCAGGCAGGCAUCAAAAGAAAUAGUCUUGCGCUCAACUAGGAAGUCUGUAAUCAUUUUAAGGGUA [C35A C113U A116G] | 0
GUUAACGGUCAUAGGCCAUGGAAACUAGGAGCACUAUUUCGCUGCCAGUGAAGAAAUGAACAAAGAAAAUCUGGGCCAGGCAGACAUCAGAAGAAAUAGUCUUGCGCUCAACCAGAAAGUCUGUAAUCAUUUUAAGGGUA [C35U G84A A90G] | 1.46
GUUAACGGUCAUAGGCCAUGGAAACUAGGAGCAUCAUUUCGCUGCCAGUGAAGAGAUGGACAAAGAAAAUCUGGGCCAGGCAGGCAUCAAAAGAAAUAGUCUUGCGCUCAACCAGAAAGUCUGUAAUCAUUUUAAGGGUA [C34U A55G A59G] | 0.46
GUUAACGGUCAUAGGCCAUGGAAACUAGGAGCACAAUUUCGCUGCCAGUGGAGAAAUGAACAAAGAAAAUCUGGGCCAGGCAGGCAUAAAAAGAAAUAGUCUUGCGCUCAACCAGAAAAUCUGUAAUCAUUUUAAGGGUA [C35A A51G C88A G119A] | 2.46
GUUAACGGUCAUAGGCCAUGGAAACUAGGAGCACAAUUUCGCCGCCAGUGAAGAAAUGAACAAAGAAAAUCUGGGCCAGGCAGGCAUCAAAAGAAAUAGUCUUGCGCUCAACCAGAAGGUCUGUAAUCAUUUUAAGAGUA [C35A U43C A118G G137A] | 1.61
GUUAACGGUCAUAGGCCAUGGAAACUAGGAGCACUAUUUCGCUGCCAGUGAGGAAAUGGACAAAGAAAAUCUGGGCCAGGCAGGCAUCAAAAGAAAUAGUCUUGCGCUCAGCCAGAAAGUCUGUAACCAUUAUAAGGGUA [C35U A52G A59G A111G U127C U132A] | 0.02
GUUAACGGUCAUAGGCCAUGGAAACUAGGAGCAUCAUUUCGCUGCCAGUGAAGAAAUGAACAAAGAAAAUCUGGGCCAGGCAGGCAUCAAAAGAAAUAGUCUUGCGCUCAACCAGGAAGUCAGUAAUCAUUUUAAGGGUA [C34U A116G U122A] | 0.73
